The labels stand for the following.
B1: NR1I3, Q14994 (protein)
chain: MASREDELRNCVVCGDQATGYHFNALTCEGCKGFFRRTVSKSIGPTCPFAGSCEVSKTQRRHCPACRLQKCLDAGMRKDMILSAEALALRRAKQAQRRAQQTPVQLSKEQEELIRTLLGAHTRHMGTMFEQFVQFRPPAHLFIHHQPLPTLAPVLPLVTHFADINTFMVLQVIKFTKDLPVFRSLPIEDQISLLKGAAVEICHIVLNTTFCLQTQNFLCGPLRYTIEDGARVSPTVGFQVEFLELLFHFHGTLRKLQLQEPEYVLLAAMALFSPDRPGVTQRDEIDQLQEEMALTLQSYIKGQQRRPRDRFLYAKLLGLLAELRSINEAYGYQIQHIQGLSAMMPLLQEICS
B2: FOS, P01100 (protein)
chain: MMFSGFNADYEASSSRCSSASPAGDSLSYYHSPADSFSSMGSPVNAQDFCTDLAVSSANFIPTVTAISTSPDLQWLVQPALVSSVAPSQTRAPHPFGVPAPSAGAYSRAGVVKTMTGGRAQSIGRRGKVEQLSPEEEEKRRIRRERNKMAAAKCRNRRRELTDTLQAETDQLEDEKSALQTEIANLLKEKEKLEFILAAHRPACKIPDDLGFPEEMSVASLDLTGGLPEVATPESEEAFTLPLLNDPEPKPSVEPVKSISSMELKTEPFDDFLFPASSRPSGSETARSVPDMDLSGSFYAADWEPLHSGSLGMGPMATELEPLCTPVVTCTPSCTAYTSSFVFTYPEADSFPSCAAAHRKGSSSNEPSSDSLSSPTLLAL
B3: TADA2A, O75478 (protein)
chain: MDRLGPFSNDPSDKPPCRGCSSYLMEPYIKCAECGPPPFFLCLQCFTRGFEYKKHQSDHTYEIMTSDFPVLDPSWTAQEEMALLEAVMDCGFGNWQDVANQMCTKTKEECEKHYMKHFINNPLFASTLLNLKQAEEAKTADTAIPFHSTDDPPRPTFDSLLSRDMAGYMPARADFIEEFDNYAEWDLRDIDFVEDDSDILHALKMAVVDIYHSRLKERQRRKKIIRDHGLINLRKFQLMERRYPKEVQDLYETMRRFARIVGPVEHDKFIESHALEFELRREIKRLQEYRTAGITNFCSARTYDHLKKTREEERLKRTMLSEVLQYIQDSSACQQWLRRQADIDSGLSPSIPMASNSGRRSAPPLNLTGLPGTEKLNEKEKELCQMVRLVPGAYLEYKSALLNECNKQGGLRLAQARALIKIDVNKTRKIYDFLIREGYITKG
B4: POU1F1, P28069 (protein)
chain: MSCQAFTSADTFIPLNSDASATLPLIMHHSAAECLPVSNHATNVMSTATGLHYSVPSCHYGNQPSTYGVMAGSLTPCLYKFPDHTLSHGFPPIHQPLLAEDPTAADFKQELRRKSKLVEEPIDMDSPEIRELEKFANEFKVRRIKLGYTQTNVGEALAAVHGSEFSQTTICRFENLQLSFKNACKLKAILSKWLEEAEQVGALYNEKVGANERKRKRRTTISIAAKDALERHFGEQNKPSSQEIMRMAEELNLEKEVVRVWFCNRRQREKRVKTSLNQSLFSISKEHLECR
B5: PTF1A, Q7RTS3 (protein)
chain: MDAVLLEHFPGGLDAFPSSYFDEDDFFTDQSSRDPLEDGDELLADEQAEVEFLSHQLHEYCYRDGACLLLQPAPPAAPLALAPPSSGGLGEPDDGGGGGYCCETGAPPGGFPYSPGSPPSCLAYPCAGAAVLSPGARLRGLSGAAAAAARRRRRVRSEAELQQLRQAANVRERRRMQSINDAFEGLRSHIPTLPYEKRLSKVDTLRLAIGYINFLSELVQADLPLRGGGAGGCGGPGGGGRLGGDSPGSQAQKVIICHRGTRSPSPSDPDYGLPPLAGHSLSWTDEKQLKEQNIIRTAKVWTPEDPRKLNSKSSFNNIENEPPFEFVS
B6: MTDH, Q86UE4 (protein)
chain: MAARSWQDELAQQAEEGSARLREMLSVGLGFLRTELGLDLGLEPKRYPGWVILVGTGALGLLLLFLLGYGWAAACAGARKKRRSPPRKREEAAAVPAAAPDDLALLKNLRSEEQKKKNRKKLSEKPKPNGRTVEVAEGEAVRTPQSVTAKQPPEIDKKNEKSKKNKKKSKSDAKAVQNSSRHDGKEVDEGAWETKISHREKRQQRKRDKVLTDSGSLDSTIPGIENTITVTTEQLTTASFPVGSKKNKGDSHLNVQVSNFKSGKGDSTLQVSSGLNENLTVNGGGWNEKSVKLSSQISAGEEKWNSVSPASAGKRKTEPSAWSQDTGDANTNGKDWGRSWSDRSIFSGIGSTAEPVSQSTTSDYQWDVSRNQPYIDDEWSGLNGLSSADPNSDWNAPAEEWGNWVDEERASLLKSQEPIPDDQKVSDDDKEKGEGALPTGKSKKKKKKKKKQGEDNSTAQDTEELEKEIREDLPVNTSKTRPKQEKAFSLKTISTSDPAEVLVKNSQPIKTLPPATSTEPSVILSKSDSDKSSSQVPPILQETDKSKSNTKQNSVPPSQTKSETSWESPKQIKKKKKARRET
B7: EOMES, O95936 (protein)
chain: MQLGEQLLVSSVNLPGAHFYPLESARGGSGGSAGHLPSAAPSPQKLDLDKASKKFSGSLSCEAVSGEPAAASAGAPAAMLSDTDAGDAFASAAAVAKPGPPDGRKGSPCGEEELPSAAAAAAAAAAAAAATARYSMDSLSSERYYLQSPGPQGSELAAPCSLFPYQAAAGAPHGPVYPAPNGARYPYGSMLPPGGFPAAVCPPGRAQFGPGAGAGSGAGGSSGGGGGPGTYQYSQGAPLYGPYPGAAAAGSCGGLGGLGVPGSGFRAHVYLCNRPLWLKFHRHQTEMIITKQGRRMFPFLSFNINGLNPTAHYNVFVEVVLADPNHWRFQGGKWVTCGKADNNMQGNKMYVHPESPNTGSHWMRQEISFGKLKLTNNKGANNNNTQMIVLQSLHKYQPRLHIVEVTEDGVEDLNEPSKTQTFTFSETQFIAVTAYQNTDITQLKIDHNPFAKGFRDNYDSSHQIVPGGRYGVQSFFPEPFVNTLPQARYYNGERTVPQTNGLLSPQQSEEVANPPQRWLVTPVQQPGTNKLDISSYESEYTSSTLLPYGIKSLPLQTSHALGYYPDPTFPAMAGWGGRGSYQRKMAAGLPWTSRTSPTVFSEDQLSKEKVKEEIGSSWIETPPSIKSLDSNDSGVYTSACKRRRLSPSNSSNENSPSIKCEDINAEEYSKDTSKGMGGYYAFYTTP
B8: TRIM52, Q96A61 (protein)
chain: MAGYATTPSPMQTLQEEAVCAICLDYFKDPVSISCGHNFCRGCVTQLWSKEDEEDQNEEEDEWEEEEDEEAVGAMDGWDGSIREVLYRGNADEELFQDQDDDELWLGDSGITNWDNVDYMWDEEEEEEEEDQDYYLGGLRPDLRIDVYREEEILEAYDEDEDEELYPDIHPPPSLPLPGQFTCPQCRKSFTRRSFRPNLQLANMVQIIRQMCPTPYRGNRSNDQGMCFKHQEALKLFCEVDKEAICVVCRESRSHKQHSVLPLEEVVQEYQEIKLETTLVGILQIEQESIHSKAYNQ
B9: TRIM62, Q9BVG3 (protein)
chain: MACSLKDELLCSICLSIYQDPVSLGCEHYFCRRCITEHWVRQEAQGARDCPECRRTFAEPALAPSLKLANIVERYSSFPLDAILNARRAARPCQAHDKVKLFCLTDRALLCFFCDEPALHEQHQVTGIDDAFDELQRELKDQLQALQDSEREHTEALQLLKRQLAETKSSTKSLRTTIGEAFERLHRLLRERQKAMLEELEADTARTLTDIEQKVQRYSQQLRKVQEGAQILQERLAETDRHTFLAGVASLSERLKGKIHETNLTYEDFPTSKYTGPLQYTIWKSLFQDIHPVPAALTLDPGTAHQRLILSDDCTIVAYGNLHPQPLQDSPKRFDVEVSVLGSEAFSSGVHYWEVVVAEKTQWVIGLAHEAASRKGSIQIQPSRGFYCIVMHDGNQYSACTEPWTRLNVRDKLDKVGVFLDYDQGLLIFYNADDMSWLYTFREKFPGKLCSYFSPGQSHANGKNVQPLRINTVRI
B10: ID3, Q02535 (protein)
chain: MKALSPVRGCYEAVCCLSERSLAIARGRGKGPAAEEPLSLLDDMNHCYSRLRELVPGVPRGTQLSQVEILQRVIDYILDLQVVLAEPAPGPPDGPHLPIQTAELTPELVISNDKRSFCH
B11: RNF25, Q96BH1 (protein)
chain: MAASASAAAGEEDWVLPSEVEVLESIYLDELQVIKGNGRTSPWEIYITLHPATAEDQDSQYVCFTLVLQVPAEYPHEVPQISIRNPRGLSDEQIHTILQVLGHVAKAGLGTAMLYELIEKGKEILTDNNIPHGQCVICLYGFQEKEAFTKTPCYHYFHCHCLARYIQHMEQELKAQGQEQEQERQHATTKQKAVGVQCPVCREPLVYDLASLKAAPEPQQPMELYQPSAESLRQQEERKRLYQRQQERGGIIDLEAERNRYFISLQQPPAPAEPESAVDVSKGSQPPSTLAAELSTSPAVQSTLPPPLPVATQHICEKIPGTRSNQQRLGETQKAMLDPPKPSRGPWRQPERRHPKGGECHAPKGTRDTQELPPPEGPLKEPMDLKPEPHSQGVEGPPQEKGPGSWQGPPPRRTRDCVRWERSKGRTPGSSYPRLPRGQGAYRPGTRRESLGLESKDGS
B12: ZNF837, Q96EG3 (protein)
chain: MEAPAQKAGQGGLPKADAQGASGAREKRPEEPRPLEEDRAGSRPTQKGDLRGAAGGRTTPPGGGSRGCSLGVSPGPGTRHSAGTRPLVREPCGPTSSQNPELVIPEGLQAREGPCRSPARGGDCSRNSCLAWHRGAPAGETPPVCDPCPERIQNHPRTQLCEVHTDCWPCQPGTGAPTCPRTPKPTSRGRNPLVEQPRACACGEAFAWRALRIPQERLQATEEPRPCARCGKRFRPNQQQQAGKSPPVCPECGQTSRPRPIVPDPPAQRLYACDECGKAFTRTSSLLQHQRIHTGERPYECAECGKAFVRCSGLYRHQKTHSAERHRRGPVLARRAFRLGCPPCGDYSERSPRRGSGAGEKPYECADCAKAFGLFSHLVEHRRVHTGEKPYACPECGKAFNQRSNLSRHQRTHSSAKPYACPLCEKAFKGRSGLVQHQRAHTGERPYGCSECGKTFRGCSELRQHERLHSGEKPYICRDCGKAFVRNCSLVRHLRTHTGERPYACGDCGRAFSQRSNLNEHRKRHGGRAAP

The other results are listed elsewhere or left out. Binding of human transcription factors and regulators to the viral nucleoprotein by AlphaScreen, crude cell-free proteins, amounts not normalised, one pass. Fold of the Venus control; higher = more signal. No active / inactive call. Single-pass screen; sequences are the whole Swiss-Prot entries looked up by name.

This test concerns the target nucleoprotein N of Crimean-Congo hemorrhagic fever virus. Put plainly: AlphaScreen luminescence signal relative to Venus negative control (fold); higher = stronger binding to CCHFV N. The method, then: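 AlphaScreen binding of cell-free made, FLAG-GST-tagged human transcription factors and regulators (crude translation products) to biotinylated N protein; signal as fold of the FLAG-GST-Venus control. One pass.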
For orientation: In Alpha technology, singlet oxygen from a donor bead excites a nearby acceptor bead.
Regarding B1, the AlphaScreen luminescence signal was 2.47. B2 registered an AlphaScreen luminescence signal of 1.86.

B3 came in with an AlphaScreen luminescence signal of 1.67.

Take B4: the AlphaScreen luminescence signal was determined as 2.56. B5 registered an AlphaScreen luminescence signal of 1.44. In the case of B6, the AlphaScreen luminescence signal was 30.8. In turn, B7 displayed an AlphaScreen luminescence signal of 5.21.

The molecule B8 displayed an AlphaScreen luminescence signal of 2.79. The molecule B9 came in with an AlphaScreen luminescence signal of 2.33. The figure for B10 is 0.837; for B11 it is 9.26; for B12 it is 1.35.

Values taken from the supplement of paper PMC12423691.
